# Reference: PubChem BioAssay AID1768 (National Center for Advancing Translational Sciences (NCATS), 2009)
# Values joined by “and” are separate entries in the source; they are usually repeats but may differ in a detail not shown here. Equal values may be shown once. The whole screen tested about 270,000 compounds, of which about 620 (0.23%) were called active. Inconclusive results, whose numbers are uncertain, are shown with a selection of clear calls. Calls follow the shape of the dose curve; as a rule, active = well fitted inhibition curve with a large enough effect in the polarisation, with a control signal flat (not every such curve was filed as active); inconclusive = small, poorly fitted or top-dose-only effect, or effect the other way, or a change in a side signal; inactive = no such curve, though single readings can be large or run the other way; the % refers to the polarisation. Potencies of inconclusive entries are doubtful fits and often do not repeat. “Side channel” marks fits to a control or component signal instead of the main read-out.
# Molecular target: Menin (Homo sapiens) (UniProt O00255)
# Sequence of UniProt O00255 (O00255 whole entry, looked up): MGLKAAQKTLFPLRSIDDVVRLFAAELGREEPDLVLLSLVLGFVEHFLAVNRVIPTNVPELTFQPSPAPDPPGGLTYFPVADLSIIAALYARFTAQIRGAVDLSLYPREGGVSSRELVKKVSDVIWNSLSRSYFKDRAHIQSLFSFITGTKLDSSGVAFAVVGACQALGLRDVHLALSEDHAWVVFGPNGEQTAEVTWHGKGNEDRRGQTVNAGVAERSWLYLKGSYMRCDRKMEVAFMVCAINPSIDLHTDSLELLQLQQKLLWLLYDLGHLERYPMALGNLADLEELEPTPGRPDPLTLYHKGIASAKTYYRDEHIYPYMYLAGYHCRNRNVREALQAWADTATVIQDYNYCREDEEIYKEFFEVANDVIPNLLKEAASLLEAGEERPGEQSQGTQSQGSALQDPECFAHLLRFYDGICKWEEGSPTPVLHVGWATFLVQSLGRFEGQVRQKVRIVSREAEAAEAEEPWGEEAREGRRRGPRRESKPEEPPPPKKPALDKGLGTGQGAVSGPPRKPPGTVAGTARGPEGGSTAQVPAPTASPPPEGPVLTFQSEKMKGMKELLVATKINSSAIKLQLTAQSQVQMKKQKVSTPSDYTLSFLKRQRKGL
# Experiment: qHTS Assay for Inhibitors Targeting the Menin-MLL Interaction in MLL Related Leukemias: Competition With Texas Red Labeled MLL-derived Mutant Peptide
# Conditions: fluorescence polarization; series mostly up to 61.6 µM
# Potency is read from the fitted curve at half-maximal effect; tags tell the direction and shape of the fitted curve or compound fluorescence and quenching.
row,Structure (SMILES),Potency
1,O=C(/C(=N/N=C/c1ccc(O)c(O)c1)c1ccccc1)c1ccccc1,"inconclusive: 22.4 µM [quencher, side channel, partial curve]"
2,Cc1ccc(N(C(=O)c2snc(C(N)=O)c2N)C(C(=O)NC2CCCC2)c2ccco2)cc1 (stereo unspecified),inactive
3,O=C(NCC(c1cccnc1)N1CCN(c2ccc(F)cc2)CC1)C1CCCCC1 (stereo unspecified),"inconclusive: 3.55 µM [inhibitor, full curve, poor fit]"
4,COc1ccccc1NC(=O)Nc1cc(C(C)C)ccc1C,"inconclusive: 39.8 µM [fluorescent, single point]"
5,NC(=O)CC(NC(=O)Cc1cccc2ccccc12)c1ccc(N2CCC(Cc3ccccc3)CC2)c([N+](=O)[O-])c1 (stereo unspecified),"inconclusive: 20 µM [quencher, side channel, single point]"
6,O=C(Cn1cnc2c(cnn2-c2ccccc2)c1=O)Nc1ccc(S(=O)(=O)N2CCOCC2)cc1,"inconclusive: 14.1 µM [quencher, side channel, partial curve]"
7,CC(=O)NCCc1ccc(S(=O)(=O)N(C)C2CCS(=O)(=O)C2)cc1 (stereo unspecified),"inconclusive: 15.8 µM [inhibitor, partial curve]"
8,COc1cccc2c1C(=O)c1c(O)c3c(c(O)c1C2=O)C[C@@](O)(C(C)=O)C[C@@H]3O[C@H]1C[C@H](N)[C@H](O)[C@H](C)O1,"inconclusive: 12.6 µM [fluorescent, side channel, partial curve] and inconclusive: 15.8 µM [fluorescent, side channel, partial curve] and inconclusive: 3.16 µM [fluorescent, side channel, full curve]"
9,CCN(CC)CCN(C(=O)c1ccc2c(c1)CCCC2)c1nc2ccc(C)cc2s1,"inconclusive: 2.51 µM [inhibitor, full curve, poor fit]"
10,CNC(=O)c1cc(Oc2ccc(NC(=O)Nc3ccc(Cl)c(C(F)(F)F)c3)cc2)ccn1,"inconclusive: 3.16 µM [quencher, side channel, full curve]"
11,CCOC(=O)C1(Cc2cccc(OC)c2)CCN(CC2CC=CCC2)CC1 (stereo unspecified),"inconclusive: 44.7 µM [inhibitor, partial curve, poor fit]"
12,Cc1ccc2cc(CN(Cc3ccco3)C(=O)C3CCCCC3)c(=O)[nH]c2c1C,"inconclusive: 12.6 µM [fluorescent, side channel, partial curve]"
13,FC(F)(F)c1nc2ccccc2nc1N/N=C\c1ccccc1,"inconclusive: 22.4 µM [quencher, side channel, partial curve]"
14,O=C1N=c2ccc(Br)cc2=C1c1sc(=O)[nH]c1O,"inconclusive: 20 µM [quencher, side channel, partial curve]"
15,Cc1ccc(-c2csc(-c3c[nH]c4ccccc34)n2)cc1,"inconclusive: 25.1 µM [quencher, side channel, partial curve]"
16,O=C(NCc1ccco1)c1nn2c(C(F)(F)F)cc(-c3cccs3)nc2c1Br,"inconclusive: 39.8 µM [quencher, side channel, single point]"
17,CN(C)c1ccc(/C=C(\C#N)C(=O)c2ccccc2)cc1,"inconclusive: 39.8 µM [fluorescent, single point]"
18,CCC(CC)C(=O)Nc1cccc(C(=O)Nc2ccc(S(N)(=O)=O)cc2)c1,"inconclusive: 15.8 µM [quencher, side channel, partial curve]"
19,O=C(Oc1cccc(-n2cnnn2)c1)c1sc2ccccc2c1Cl,"inconclusive: 39.8 µM [inhibitor, single point]"

row,Structure (SMILES),Potency
1,O=C(C1=C(O)C(=O)N(Cc2ccco2)C1c1cccc([N+](=O)[O-])c1)c1ccco1 (stereo unspecified),"inconclusive: 17.8 µM [quencher, side channel, partial curve]"
2,COc1ccc(-c2cc(C(F)(F)F)nc(SCC(=O)NCc3cccs3)n2)cc1OC,inactive
3,COc1ccccc1NS(=O)(=O)c1cc(N)ccc1N1CCCCC1,"inconclusive: 31.6 µM [quencher, side channel, partial curve]"
4,CCc1nc(N2CCC(C)CC2)c2oc3ccccc3c2n1,"inconclusive: 15.8 µM [fluorescent, side channel, partial curve]"
5,COC(=O)c1ccc(COc2ccccc2/C=C(\C#N)C(=O)Nc2c(C)cc(C)cc2C)cc1,"inconclusive: 5.01 µM [fluorescent, side channel, full curve, poor fit]"
6,CCN1CCCC1CNc1ncnc2c1[nH]c1ccc(Cl)cc12 (stereo unspecified),inactive
7,O=C(Nc1ccc(NC(=O)C2CCCN2C(=O)OCc2ccccc2)cc1)c1ccco1 (stereo unspecified),inactive
8,O=C(CNc1ccccc1)N/N=C/c1c(O)ccc2ccccc12,"inconclusive: 25.1 µM [quencher, partial curve]"
9,CS(=O)(=O)c1ccc(-c2cccc(NC(=O)COc3ccc(Cl)cc3)c2)nn1,"inconclusive: 28.2 µM [fluorescent, side channel, partial curve]"
10,COc1cccc(N(C(=O)Cn2nnc3ccccc32)C(C(=O)NCc2ccco2)c2cccnc2)c1 (stereo unspecified),inactive
11,CCOC(=O)N1CCC(=NNC(=O)c2cc3ccccc3cc2O)CC1,"inconclusive: 10 µM [quencher, side channel, partial curve]"
12,C=CCOn1c(=O)c(-c2cc3ccccc3o2)[n+]([O-])c2ccccc21,"inconclusive: 39.8 µM [inhibitor, single point]"
13,O=C(Nc1ccc(Cl)cc1)c1ccc2snnc2c1,"inconclusive: 39.8 µM [quencher, side channel, single point]"
14,CCN(C(=O)Cc1ccccc1OC)c1nnc(-c2ccncc2)s1,"inconclusive: 39.8 µM [inhibitor, single point]"
15,CN(c1nc2ccccc2[nH]c1=O)C1CCCCC1,"inconclusive: 39.8 µM [inhibitor, single point]"
16,COc1ccccc1-c1coc2cc(OCC(=O)OCc3ccccc3)ccc2c1=O,"inconclusive: 17.8 µM [fluorescent, side channel, partial curve]"
17,COc1cc(C(=O)Nc2cccc3c2CCCC3)cc(OC)c1OC,"inconclusive: 2.51 µM [inhibitor, full curve, poor fit]"
18,CCn1cc(/C=N/NC(=O)c2cc3c(ccc4ccccc43)o2)c2ccccc21,"inconclusive: 35.5 µM [inhibitor, single point]"
19,Cc1[nH]n(-c2ccccc2)c(=O)c1N=Nc1ccc(C(N)=O)cc1,"inconclusive: 25.1 µM [quencher, side channel, partial curve]"

row,Structure (SMILES),Potency
1,Oc1cccc(/C=C/c2ccc3cccc(O)c3n2)c1,"inconclusive: 3.16 µM [quencher, side channel, single point]"
2,N#CC1=C(N)Oc2c(sc3ccccc23)C1c1ccco1 (stereo unspecified),"inconclusive: 39.8 µM [quencher, side channel, single point]"
3,FC(F)(F)c1ccc2c(c1)N1CCCC1CN2 (stereo unspecified),"inconclusive: 10 µM [quencher, side channel, partial curve]"
4,CCNc1ncc2nc(-c3ccc(OC)cc3)c(=O)n(CCc3ccccc3)c2n1,"inconclusive: 8.91 µM [inhibitor, single point]"
5,Cc1cccc(NC(=S)NC(=O)c2ccc(-c3ccccc3)cc2)n1,"inconclusive: 39.8 µM [fluorescent, side channel, single point]"
6,O=C(c1cc(-c2ccccc2)on1)N1CCCC1,"inconclusive: 39.8 µM [inhibitor, single point]"
7,Cc1ccc(CN(C)CC(=O)Nc2ccc3c(c2)CCC3)cc1,"inconclusive: 28.2 µM [fluorescent, side channel, single point]"
8,O=C(c1cnccn1)N1CCC2(CCCN(C(c3ccccc3)c3ccccc3)C2)CC1,"inconclusive: 0.631 µM [inhibitor, full curve]"
9,CC(C)c1ccc(Nc2ccc(C(=O)O)cc2[N+](=O)[O-])cc1,"inconclusive: 28.2 µM [quencher, side channel, single point]"
10,Cc1ccc(C)c(NC(=O)c2cc(-c3ccccc3)nn2-c2ccccc2)c1,"inconclusive: 7.08 µM [fluorescent, side channel, full curve, poor fit]"
11,N#CC1=C(c2ccc(-c3ccccc3)cc2)COC1=O,"inconclusive: 14.1 µM [quencher, side channel, partial curve]"
12,CCN(c1cccc(C)c1)S(=O)(=O)c1c(C)[nH]c(=O)[nH]c1=O,inactive
13,COc1cc(C(=O)NC(=S)Nc2ccc(Cc3ccncc3)cc2)cc(OC)c1OC,"inconclusive: 22.4 µM [inhibitor, partial curve]"
14,COc1ccccc1NC(=S)N(Cc1ccccc1)Cc1ccccn1,inactive
15,O=C(Nc1cccc(C(=O)Nc2ccc(S(=O)(=O)O)c3cc(S(=O)(=O)O)cc(S(=O)(=O)O)c23)c1)Nc1cccc(C(=O)Nc2ccc(S(=O)(=O)O)c3cc(S(=O)(=O)O)cc(S(=O)(=O)O)c23)c1,inactive
16,N#Cc1ccc(NC(=O)N2CCC(c3nc4c(nnn4Cc4cccc(Cl)c4)c(=O)[nH]3)CC2)cc1,"inconclusive: 31.6 µM [quencher, side channel, single point]"
17,CC[C@@H]1Cn2c(c3nc(-c4cc(Cl)cc(Cl)c4Cl)nc-3n(C)c2=O)N1,inactive
18,COc1ccc(CN(C)Cc2c(O)ccc3cc(Br)ccc23)cc1OC,"inconclusive: 11.2 µM [quencher, side channel, single point]"
